Sequences with one replicate were seen in a single cluster, so their values are uncertain.
What follows are sequences tested on ATP (assay: switch fluorescence ratio, 500 uM ATP over buffer (Cy3 cluster intensity, sum of 5 cycles each) (fold (ratio)); higher = stronger signal-on switching upon ATP binding; sequences stand for … in TCGTCGGCAGCGTCAGATGTGTATAAGAGACAGTTTTTTTTTTTTTTTTTTTTTTTTT…TC). Conditions: aptamer strand: ATP DNA aptamer (quencher-CACCTGGGGGAGTATTGCGGAGGAAGG + anchor), 100 nM annealed; ATP concentration: 500 uM; one replicate.
In short: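 Cy3-labelled switching-strand clusters on a modified Illumina MiSeq flow-cell were annealed to 100 nM quencher-labelled ATP aptamer and imaged first in selection buffer, then after 15 min with 500 uM ATP at 22 °C. NaOH stripping and re-annealing separated each of five buffer/ATP cycles, and clusters outside 100-1000 RFU were excluded. The fluorescence ratio sums target-cycle Cy3 intensity over buffer-cycle Cy3 intensity per cluster and averages it per switch-domain sequence.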
ACGGAAACTT was tested, and the switch fluorescence ratio was 1.1.
GCCGGACGCA showed a switch fluorescence ratio of 1.19.
TTCATTCC showed a switch fluorescence ratio of 1.26.
ATCCTGATGC gave a switch fluorescence ratio of 1.06.
For GTAGAAAAAT, the switch fluorescence ratio was 1.07.
GAATGGAATA was tested, and the switch fluorescence ratio was 1.
With CGTTTAACGC the switch fluorescence ratio was 0.969.
For ATGGTATATC, the switch fluorescence ratio was 1.02.
CCACCATGCC was tested, and the switch fluorescence ratio was 1.11.
TAGACAGGAG was tested, and the switch fluorescence ratio was 1.01.
GGCTTTATTA showed a switch fluorescence ratio of 0.963.
For TTGCATTATT, the switch fluorescence ratio was 1.02.
Work on TGCGGGCTTG yielded a switch fluorescence ratio of 0.979.
With TTTTACCTCA the switch fluorescence ratio was 0.984.
GATCTCCTT gave a switch fluorescence ratio of 1.02.
ATTCTTCAGT gave a switch fluorescence ratio of 1.02.
Sequence GCCACGAAGG has a switch fluorescence ratio of 0.996.
With AGGAAGAGTA the switch fluorescence ratio was 0.985.
With AGTTTTATAA the switch fluorescence ratio was 1.03.
For TGCCCGATAG, the switch fluorescence ratio was 1.02.
With AGCGGCAAAG the switch fluorescence ratio was 1.03.
With ATGATTTTTG the switch fluorescence ratio was 1.01.
TTTGTCAACG showed a switch fluorescence ratio of 1.02.
GTGAACCTGT showed a switch fluorescence ratio of 0.986.
With GGCGACAGTG the switch fluorescence ratio was 0.961.
ACAAGGCCCG was tested, and the switch fluorescence ratio was 1.04.
In the case of ACTCTGTTTG, the switch fluorescence ratio is reported as 1.01.
AGAGAAGTAA showed a switch fluorescence ratio of 0.972.
GAGATCTCCA gave a switch fluorescence ratio of 0.985.
In the case of CAAGTTGCGC, the switch fluorescence ratio is reported as 1.
In the case of AAAATTGAGT, the switch fluorescence ratio is reported as 1.04.
For CAGATTCAGG, the switch fluorescence ratio was 1.03.
AGCATGGATG was tested, and the switch fluorescence ratio was 0.962.
In the case of AAAAGTTCT, the switch fluorescence ratio is reported as 0.943.
TATGTTTTCG was tested, and the switch fluorescence ratio was 0.973.
GTTTTAAGC showed a switch fluorescence ratio of 0.929.
TCGTGTGGCT showed a switch fluorescence ratio of 0.946.
For GAATGAGGTC, the switch fluorescence ratio was 1.
Work on TAAGTATCAG yielded a switch fluorescence ratio of 0.945.
For CTCCGACCT, the switch fluorescence ratio was 1.85.
TTTACCTTGG gave a switch fluorescence ratio of 0.983.
In the case of GAGTTTTCCG, the switch fluorescence ratio is reported as 1.04.
For ATCGCAACCT, the switch fluorescence ratio was 2.12.
For TTCAGTCACC, the switch fluorescence ratio was 1.02.
In the case of AGGGTTATA, the switch fluorescence ratio is reported as 0.997.
GTAACTCGTG showed a switch fluorescence ratio of 0.986.
GATTCTC gave a switch fluorescence ratio of 1.01.
In the case of TGGAGCCTGC, the switch fluorescence ratio is reported as 0.97.
ACCCTGCCAG gave a switch fluorescence ratio of 1.01.
TCCGATTA gave a switch fluorescence ratio of 1.05.
For CTGTTGCCGC, the switch fluorescence ratio was 1.13.
ACTTTTACGA gave a switch fluorescence ratio of 1.18.
TTGACAAGC gave a switch fluorescence ratio of 0.982.
Work on TTAGGGTACT yielded a switch fluorescence ratio of 1.02.
In the case of GTTTCCAGTA, the switch fluorescence ratio is reported as 1.02.
For CGGGCGACGT, the switch fluorescence ratio was 1.13.
For AAGCGATCAT, the switch fluorescence ratio was 0.941.
Work on ACGAGTTCTG yielded a switch fluorescence ratio of 0.996.
ATCATCTACT gave a switch fluorescence ratio of 1.02.
For CGCATCTTTA, the switch fluorescence ratio was 1.05.
ATCTTACGCT showed a switch fluorescence ratio of 0.978.
AGAAAGCACC gave a switch fluorescence ratio of 1.15.
In the case of TTGCCGATGG, the switch fluorescence ratio is reported as 0.997.
GACCATAGGG showed a switch fluorescence ratio of 1.06.
With GGACTAGGTA the switch fluorescence ratio was 0.989.
Work on CGAACGCTGA yielded a switch fluorescence ratio of 2.87.
CATCTATATT showed a switch fluorescence ratio of 1.03.
In the case of AATGCCAGGC, the switch fluorescence ratio is reported as 0.993.
AGGTTCCGCC gave a switch fluorescence ratio of 1.05.
In the case of ACTTGACAAC, the switch fluorescence ratio is reported as 1.15.
ACAGGACTGT gave a switch fluorescence ratio of 0.992.
ACCGCTGCGC was tested, and the switch fluorescence ratio was 1.62.
For CGTGATTCGT, the switch fluorescence ratio was 0.999.
Sequence TTTCAGAGCG has a switch fluorescence ratio of 0.999.
Work on TCGCTACCTC yielded a switch fluorescence ratio of 1.85.
GTTGGGTAGA gave a switch fluorescence ratio of 1.02.
Sequence TGACTGGGCT has a switch fluorescence ratio of 1.04.
CCAGGGCCCA was tested, and the switch fluorescence ratio was 1.01.
For TTTGGGCTCT, the switch fluorescence ratio was 1.07.
Work on GAAAAGTCCG yielded a switch fluorescence ratio of 1.02.
In the case of GTGTTTTCAT, the switch fluorescence ratio is reported as 0.97.
With CCTTTAGAAA the switch fluorescence ratio was 1.03.
With TGAATACTGG the switch fluorescence ratio was 1.09.
ATGTAGACGC was tested, and the switch fluorescence ratio was 0.963.
With GCTAGGCTTT the switch fluorescence ratio was 0.993.
TCATAGATTG gave a switch fluorescence ratio of 1.
Work on TTGCATTCTG yielded a switch fluorescence ratio of 1.02.
Sequence ATAGTTGAAC has a switch fluorescence ratio of 1.02.
AGATATAGCC showed a switch fluorescence ratio of 0.947.
Sequence GTCGTGTC has a switch fluorescence ratio of 0.945.
In the case of CAGCTACAGA, the switch fluorescence ratio is reported as 0.995.
In the case of GTAATAACGC, the switch fluorescence ratio is reported as 1.
ATTGTTAGAA gave a switch fluorescence ratio of 1.02.
For CATCTCCGGG, the switch fluorescence ratio was 1.12.
Sequence CCACAGGGTA has a switch fluorescence ratio of 1.33.
ACTGGTCTGG was tested, and the switch fluorescence ratio was 1.
TACCGTCAGG gave a switch fluorescence ratio of 0.979.
Work on AGTGGATAA yielded a switch fluorescence ratio of 0.998.
For GGCCTTTCGT, the switch fluorescence ratio was 1.02.
In the case of CGGGCACGTT, the switch fluorescence ratio is reported as 1.
TCAAGTCCAT gave a switch fluorescence ratio of 1.03.
GGCGCTGACA gave a switch fluorescence ratio of 0.976.
GCGCGACCGC showed a switch fluorescence ratio of 1.03.
TGGGTGGCCG was tested, and the switch fluorescence ratio was 0.989.
Sequence ACCCAAAACG has a switch fluorescence ratio of 1.05.
In the case of CACTCGTCTG, the switch fluorescence ratio is reported as 1.01.
TATACAGGT gave a switch fluorescence ratio of 0.971.
GCTGTTGGCC gave a switch fluorescence ratio of 0.993.
With TACATTAACT the switch fluorescence ratio was 1.06.
GTCTGAACCT gave a switch fluorescence ratio of 2.01.
Sequence CATGCTCTCA has a switch fluorescence ratio of 1.01.
With GGCGGTCGGA the switch fluorescence ratio was 1.03.
GCAGTGGTGT was tested, and the switch fluorescence ratio was 1.01.
CAGTAGACAT showed a switch fluorescence ratio of 1.
TCTTCACCAA showed a switch fluorescence ratio of 1.19.
ACTCAACGTG showed a switch fluorescence ratio of 1.18.
In the case of ACGAAAGTCG, the switch fluorescence ratio is reported as 1.01.
AGGCCAAATC was tested, and the switch fluorescence ratio was 1.
With GAGGAACACC the switch fluorescence ratio was 0.951.
Work on GACATTGATC yielded a switch fluorescence ratio of 1.
GGAAGGACAG gave a switch fluorescence ratio of 1.03.
In the case of GGCCGCCAAA, the switch fluorescence ratio is reported as 1.02.
With GTGAATGCCA the switch fluorescence ratio was 1.
Sequence GCCGGGTAGT has a switch fluorescence ratio of 0.998.
TTAGTTGCGT was tested, and the switch fluorescence ratio was 0.991.
AAGTGCAAAG was tested, and the switch fluorescence ratio was 1.01.
CAAGGCCGGT gave a switch fluorescence ratio of 1.02.
With TTGTACGTGA the switch fluorescence ratio was 1.49.
With TAAGGCTGAT the switch fluorescence ratio was 1.04.
GTGTGTGCGC gave a switch fluorescence ratio of 0.99.
With AAGATAATTT the switch fluorescence ratio was 0.985.
ACTCGGCTGT showed a switch fluorescence ratio of 1.52.
GAGAAACGTG gave a switch fluorescence ratio of 1.01.
For GATCTATATT, the switch fluorescence ratio was 1.03.
GCAATCGGTT was tested, and the switch fluorescence ratio was 1.11.
For CTTCGGATCA, the switch fluorescence ratio was 0.994.
In the case of CAGAGGTGGG, the switch fluorescence ratio is reported as 0.993.
With AATGTCAGGT the switch fluorescence ratio was 0.948.
Sequence GAGCTCTTAA has a switch fluorescence ratio of 0.968.
In the case of ATAGGTCACG, the switch fluorescence ratio is reported as 1.02.
Work on TCTTGATGTA yielded a switch fluorescence ratio of 1.
For GGATAAGTGT, the switch fluorescence ratio was 0.97.
CACAAGATGC showed a switch fluorescence ratio of 1.82.
Work on GATTTGAGCC yielded a switch fluorescence ratio of 0.976.
With TGCGAGTCAT the switch fluorescence ratio was 0.991.
Work on GTCGACTTAT yielded a switch fluorescence ratio of 1.
GGAATTTTCA showed a switch fluorescence ratio of 0.988.
CGTCGGCTGC showed a switch fluorescence ratio of 1.04.
In the case of CTTTGTCGAA, the switch fluorescence ratio is reported as 1.01.
ATAAGGAATA gave a switch fluorescence ratio of 1.03.
With TTGAATCTTG the switch fluorescence ratio was 1.01.
AGGTCGAGA showed a switch fluorescence ratio of 1.02.
In the case of ACTGCTGGAA, the switch fluorescence ratio is reported as 0.988.
Work on TGGCATTGGC yielded a switch fluorescence ratio of 0.996.
GCTAGACCCG was tested, and the switch fluorescence ratio was 0.999.
In the case of TATTAACAGG, the switch fluorescence ratio is reported as 1.02.
Work on TAATAGGAGA yielded a switch fluorescence ratio of 0.99.
With CAGGAGGTGG the switch fluorescence ratio was 0.961.
In the case of ACTAGTATG, the switch fluorescence ratio is reported as 1.
TAGAAATCTT gave a switch fluorescence ratio of 1.01.
In the case of TGTCATGCTG, the switch fluorescence ratio is reported as 0.988.
Sequence TAGCGAACGC has a switch fluorescence ratio of 1.01.
AGAGCGACTT was tested, and the switch fluorescence ratio was 1.07.
Work on TATCTATGTT yielded a switch fluorescence ratio of 0.953.
Sequence CCTGAGATAT has a switch fluorescence ratio of 1.09.
In the case of GGTCCAAAGA, the switch fluorescence ratio is reported as 0.98.
Work on AGCTACTCTA yielded a switch fluorescence ratio of 1.25.
Work on AGCCATTACT yielded a switch fluorescence ratio of 1.19.
Sequence TTCGTGGCGA has a switch fluorescence ratio of 0.963.
Work on GAGAACGAAA yielded a switch fluorescence ratio of 1.07.
Work on AATTTAACTA yielded a switch fluorescence ratio of 1.
With GCGTAATCC the switch fluorescence ratio was 1.9.
Sequence TTAGTCTACT has a switch fluorescence ratio of 1.03.
With TGCCATACG the switch fluorescence ratio was 1.13.
TCCTTAGAGT gave a switch fluorescence ratio of 0.972.
Work on ATAACGCTGA yielded a switch fluorescence ratio of 1.02.
With TGGTTTCGGG the switch fluorescence ratio was 1.02.
GACACCACGA showed a switch fluorescence ratio of 1.48.
AATTTATAGT gave a switch fluorescence ratio of 1.01.
GTCGTCCGTT was tested, and the switch fluorescence ratio was 1.
With TATTCTAAAA the switch fluorescence ratio was 0.997.
TATACAGTGA gave a switch fluorescence ratio of 0.937.
Sequence CCTCCGGTTG has a switch fluorescence ratio of 5.37.
Work on AGACCAGACG yielded a switch fluorescence ratio of 0.984.
ATGGTAAATA was tested, and the switch fluorescence ratio was 0.997.
For CAGGAAAAGC, the switch fluorescence ratio was 1.01.
ACTACGCCAG showed a switch fluorescence ratio of 1.29.
For GTGGCTCCG, the switch fluorescence ratio was 1.07.
AAAACAGAGT showed a switch fluorescence ratio of 0.996.
ACTCATGGGT showed a switch fluorescence ratio of 1.02.
CAGCTCATGT gave a switch fluorescence ratio of 0.965.
CATCGTTGTA showed a switch fluorescence ratio of 1.05.
In the case of CGTGCGTCGT, the switch fluorescence ratio is reported as 0.931.
With TTTATAATAA the switch fluorescence ratio was 1.02.
Sequence CGGCAAGGG has a switch fluorescence ratio of 1.67.
Work on GGTGTTCATA yielded a switch fluorescence ratio of 0.99.
CTTCAAGGTG gave a switch fluorescence ratio of 2.15.
Sequence GAAAGAACGG has a switch fluorescence ratio of 1.08.
GCTGGCCCCG gave a switch fluorescence ratio of 0.95.
CATGGTACTT was tested, and the switch fluorescence ratio was 1.01.
ATGATGAGCT showed a switch fluorescence ratio of 0.979.
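Further: ATP exposure 15 min at 22 °C before imaging.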
